Target: T1, Aromatase (Homo sapiens, UniProt P11511)
T1 sequence (P11511 whole entry): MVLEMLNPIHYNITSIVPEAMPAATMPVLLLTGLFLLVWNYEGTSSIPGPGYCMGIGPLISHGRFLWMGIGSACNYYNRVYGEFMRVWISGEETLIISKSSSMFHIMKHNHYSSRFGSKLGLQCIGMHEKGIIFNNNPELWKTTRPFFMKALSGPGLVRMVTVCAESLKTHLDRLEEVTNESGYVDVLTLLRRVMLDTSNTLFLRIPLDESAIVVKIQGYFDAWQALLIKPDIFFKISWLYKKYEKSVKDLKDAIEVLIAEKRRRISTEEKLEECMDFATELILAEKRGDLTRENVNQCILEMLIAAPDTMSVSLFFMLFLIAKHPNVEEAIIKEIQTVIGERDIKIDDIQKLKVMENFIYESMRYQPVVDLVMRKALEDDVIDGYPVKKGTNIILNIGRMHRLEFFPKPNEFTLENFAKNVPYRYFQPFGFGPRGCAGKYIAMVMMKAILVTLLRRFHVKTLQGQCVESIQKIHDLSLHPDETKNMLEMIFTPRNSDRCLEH

Q: For `O=c1c(C(c2ccc([N+](=O)[O-])cc2)n2ccnc2)coc2ccccc12` (centres undefined), which IC50 is on record?
A: 0.0023 µM

Q: With `CC1=CC[C@@H]2[C@H]1[C@H]1OC(=O)[C@@H](C)[C@@H]1CC[C@]2(C)O` [11BETA,13-DIHYDRO-10-EPI-8-DEOXYCUMAM-BRIN B] as the compound, how does the IC50 read?
A: 0.002 µM

Q: With `Cc1cccc(O)c1C(=O)c1c(O)cc(C(=O)O)cc1C=O` as the compound, how does the IC50 read?
A: 0.0172 µM

Q: With `COc1ccc(C2=C(c3ccc(OC)c(OC)c3)C(=O)OC2)cc1OC` as the compound, how does the IC50 read?
A: 0.001 µM

Q: How did the IC50 turn out when `CC(C)/C=C/Cc1c(O)cc(O)c2c1OC(c1ccc(O)cc1)CC2=O` (centres undefined) was run?
A: 0.2 µM

Q: With `Cn1c(=O)sc2cc(C(c3ccccc3)n3ccnc3)ccc21` (centres undefined) as the compound, how does the IC50 read?
A: 0.013 µM

Q: For `O=c1cc(-c2ccc(O)cc2)oc2cc(O)ccc12`, which IC50 is on record?
A: 0.002 µM

Q: With `CCn1c(C)c(C(c2ccc(F)cc2)n2ccnc2)c2ccccc21` (centres undefined) as the compound, how does the IC50 read?
A: 0.032 µM

Q: With `Clc1ccc(C(c2cc3ccccc3o2)n2ccnc2)cc1` (centres undefined) as the compound, how does the IC50 read?
A: 0.0088 µM

Q: Which IC50 does the source give for `Clc1cccc(C(c2ccc3[nH]cnc3c2)n2ccnc2)c1` (centres undefined) [LIAROZOLE] here?
A: 0.005 µM

Q: For `COc1ccc(C2=C(c3cc(OC)c(OC)c(OC)c3)COC2=O)cc1OC`, which IC50 is on record?
A: 0.0137 µM

Q: How did the IC50 turn out when `O=C1OC[C@H](Cc2ccc(O)c(O)c2)[C@H]1Cc1ccc(O)c(O)c1` was run?
A: 0.006 µM

Q: With `COc1ccc(C2=C(c3ccc(OC)c(OC)c3)C(=O)OC2)cc1` as the compound, how does the IC50 read?
A: 0.0069 µM

Q: With `O=[N+]([O-])c1ccc(CCn2ccnc2)cc1` as the compound, how does the IC50 read?
A: 0.16 µM

Q: `COc1cc(C(=O)N(C)C)cc(C=O)c1C(=O)c1c(C)cccc1O` was tested. Which IC50 did it give?
A: 0.0172 µM

Q: How did the IC50 turn out when `O=c1cc(-c2ccccc2)oc2c1ccc1cccc(O)c12` was run?
A: 0.02 µM

Q: `C=C1C(=O)O[C@H]2[C@H]1CCC(C)=C1C[C@H]3O[C@@]3(C)[C@@H]12` [LUDARTIN] was tested. Which IC50 did it give?
A: 0.055 µM

Q: Which IC50 does the source give for `Fc1ccc(CCCn2ccnc2)cc1` here?
A: 0.31 µM

Q: Which IC50 does the source give for `CC(Cc1ccc(O)c(O)c1)C(C)Cc1ccc(O)c(O)c1` (centres undefined) [NORDIHYDROGUAIARETIC ACID] here?
A: 0.011 µM

Q: `Clc1ccc(COC(Cn2ccnc2)c2ccc(Cl)cc2Cl)c(Cl)c1` (centres undefined) [MICONAZOLE] was tested. Which IC50 did it give?
A: 0.6 µM

Q: Which IC50 does the source give for `O=c1c(-c2ccccc2)c(SCc2ccncc2)oc2cc(OCc3ccc(-c4ccccc4)cc3)ccc12` here?
A: 0.085 µM

Q: For `O=C1OC[C@H](Cc2ccccc2)[C@H]1Cc1cccc(O)c1`, which IC50 is on record?
A: 0.006 µM

Q: `C=C1C(=O)O[C@@H]2[C@H]3C(C)=CC[C@H]3CCC[C@@H]12` [10-EPI-8-DEOXY-CUMAMBRIN B] was tested. Which IC50 did it give?
A: 0.007 µM

Q: With `COc1ccc2c(c1)C(N)=C(CC1=CCNC=C1)C2=O` as the compound, how does the IC50 read?
A: 0.0035 µM

Q: Which IC50 does the source give for `O=C1/C(=C\c2cccnc2)C(c2ccc(OC(F)(F)F)cc2)n2cccc21` (centres undefined) here?
A: 0.04 µM

Q: With `O=c1c(O)c(-c2ccc(O)c(O)c2)oc2cc(O)cc(O)c12` [QUERCETIN] as the compound, how does the IC50 read?
A: 0.012 µM

Q: How did the IC50 turn out when `C=C1C(=O)O[C@@H]2[C@H]3C(C)=CC(=O)C3=C(C)CC[C@@H]12` [DEHYDROLEUCODIN] was run?
A: 0.015 µM

Q: For `O=C1c2ccc(Oc3ccccc3)cc2OC(SCc2cccnc2)C1c1ccccc1` (centres undefined), which IC50 is on record?
A: 0.21 µM

Q: Which IC50 does the source give for `Fc1ccc(-n2cc(Cn3ccnc3)c3ccccc32)cc1` here?
A: 0.0718 µM

From ChEMBL document CHEMBL1157768, “Pharmacophore modeling strategies for the development of novel nonsteroidal inhibitors of human aromatase (CYP19)” (Bioorg Med Chem Lett, 2010)
